The values below come from PubChem BioAssay (NCI).

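48-hour exposure; five concentrations; linearly interpolated endpoints. Abbreviation: GI50, concentration required for 50% inhibition of growth. Definition used: TGI = concentration required for complete inhibition of growth.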

This experiment relates to NCI-H322M lung. The experiment can be described thus: NCI-60 cell line screen, 48 h.
On to `CC1(C)CC[C@]2(C(=O)Nc3ccc(F)cc3)CC[C@]3(C)C(=CCC4[C@@]5(C)C[C@@H](O)[C@H](O)[C@@](C)(CO)C5CC[C@]43C)C2C1` (stereo partly specified), for which the GI50 was 20.1 µM and the TGI was 56.6 µM.

Turning to `CC1=C2C(=C[C@@](C)(CO)[C@@H]2O)/C(=N\N)[C@](C)(O)C12CC2`, the GI50 was 2.32 µM and the TGI came out at 6.52 µM.

Take `CN1CCN(c2ccc(Nc3nc(NCCNC(=O)c4ccc(C(F)(F)F)cc4)c4sccc4n3)cc2)CC1`: the GI50 was 12.1 µM and the TGI was found to be 24.5 µM.
